In PubChem BioAssay (NCI):
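How tested: cells in 96-well plates exposed to compound for 48 hours at five concentrations. GI50: concentration for 50% inhibition of growth. TGI denotes the concentration required for complete inhibition of growth.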 The source made the active and inactive calls.

How the values were obtained:
CCRF-CEM leukemia = experiment: NCI tumour cell line growth inhibition, 48 h
SR leukemia = experiment: NCI tumour cell line growth inhibition, 48 h

CCOC(=O)c1ccc(N/N=C/c2cn(-c3ccc(S(N)(=O)=O)cc3)nc2-c2ccccc2)cc1
GI50 (CCRF-CEM leukemia): inactive | TGI (CCRF-CEM leukemia): 9.81 µM | GI50 (SR leukemia): inactive | TGI (SR leukemia): 4.84 µM
